This passage reports cell viability results from the supplement of paper PMC9588766.

Where a name gives a salt, the structure may show the parent alone. Whole data set: some 1,900 compounds, median “cell viability of compound + 1 nM pemigatinib relative to pemigatinib-only (DMSO) wells” near 0.95, cut for the lowest 2% near 0.22. The list shows a part of the results.

The test system of this experiment is PDC-DUC18828. Briefly: cell viability of compound + 1 nM pemigatinib relative to pemigatinib-only (DMSO) wells (fraction); PDC-DUC18828 is a patient-derived cholangiocarcinoma cell line; higher = less growth inhibition. The following applies: first compound 1 µM; pemigatinib concentration 1 nM; 72 h. As for the experimental part: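 Selleck Bioactive library screen in the patient-derived FGFR2 fusion-positive ICC cell line PDC-DUC18828 (500 cells/well). Each compound was tested at 1 uM with 1 nM pemigatinib, in triplicate, for 72 h. Viability was read by CellTiter-Glo and normalised to plate DMSO controls. Value is the paper's averaged normalised viability.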
Turning to `CN1CCN(c2nc(C3=C(c4c[nH]c5ccccc45)C(=O)NC3=O)c3ccccc3n2)CC1` [Sotrastaurin] + CCN1C(=O)N(c2c(F)c(OC)cc(OC)c2F)Cc2cnc3[nH]c(CN4CCOCC4)cc3c21 [pemigatinib], the cell viability is 0.958.

As to `CC(C(=O)O)c1ccc(C(=O)c2cccs2)cc1` (stereo not drawn) [Suprofen] + CCN1C(=O)N(c2c(F)c(OC)cc(OC)c2F)Cc2cnc3[nH]c(CN4CCOCC4)cc3c21 [pemigatinib], the cell viability was 0.976.

As for `CC(C)[C@H](N)C(=O)OCC(CO)OCn1cnc2c(=O)[nH]c(N)nc21` (stereo partly drawn) [Valganciclovir HCl] + CCN1C(=O)N(c2c(F)c(OC)cc(OC)c2F)Cc2cnc3[nH]c(CN4CCOCC4)cc3c21 [pemigatinib], the cell viability came to 0.924.

As to `O=C(c1ccc(OCCCc2c[nH]cn2)cc1)C1CC1` [Ciproxifan] + CCN1C(=O)N(c2c(F)c(OC)cc(OC)c2F)Cc2cnc3[nH]c(CN4CCOCC4)cc3c21 [pemigatinib], the cell viability stood at 0.88.

For the molecule `CCOc1ccc(NC(C)=O)cc1` [Phenacetin] + CCN1C(=O)N(c2c(F)c(OC)cc(OC)c2F)Cc2cnc3[nH]c(CN4CCOCC4)cc3c21 [pemigatinib], the cell viability came to 1.06.

In the case of `CN1CCC[C@@H]1CCO[C@](C)(c1ccccc1)c1ccc(Cl)cc1` [Clemastine Fumarate] + CCN1C(=O)N(c2c(F)c(OC)cc(OC)c2F)Cc2cnc3[nH]c(CN4CCOCC4)cc3c21 [pemigatinib], the cell viability is 1.01.

`CC[C@@H]([C@H](C)O)n1ncn(-c2ccc(N3CCN(c4ccc(OC[C@@H]5CO[C@@](Cn6cncn6)(c6ccc(F)cc6F)C5)cc4)CC3)cc2)c1=O` [Posaconazole] + CCN1C(=O)N(c2c(F)c(OC)cc(OC)c2F)Cc2cnc3[nH]c(CN4CCOCC4)cc3c21 [pemigatinib]: the cell viability is 0.861.

With `O=C(O)c1ccccc1` [Benzoic Acid] + CCN1C(=O)N(c2c(F)c(OC)cc(OC)c2F)Cc2cnc3[nH]c(CN4CCOCC4)cc3c21 [pemigatinib], the cell viability was found to be 0.991.

On to `CCCCC[C@H](O)/C=C/[C@H]1[C@H](O)CC(=O)[C@@H]1CCCCCCC(=O)O` [Alprostadil] + CCN1C(=O)N(c2c(F)c(OC)cc(OC)c2F)Cc2cnc3[nH]c(CN4CCOCC4)cc3c21 [pemigatinib], for which the cell viability came out at 1.

As for `NC1=N[C@@](c2cccc(-c3cncnc3)c2)(c2ccnc(C(F)F)c2)c2cccc(F)c21` + CCN1C(=O)N(c2c(F)c(OC)cc(OC)c2F)Cc2cnc3[nH]c(CN4CCOCC4)cc3c21 [pemigatinib], the cell viability amounted to 0.893.

Take `CCc1oc2ccccc2c1C(=O)c1cc(Br)c(O)c(Br)c1` [Benzbromarone] + CCN1C(=O)N(c2c(F)c(OC)cc(OC)c2F)Cc2cnc3[nH]c(CN4CCOCC4)cc3c21 [pemigatinib]: the cell viability came out at 1.

Take `CC/C(=C(\c1ccccc1)c1ccc(OCCN(C)C)cc1)c1ccccc1` [Tamoxifen Citrate] + CCN1C(=O)N(c2c(F)c(OC)cc(OC)c2F)Cc2cnc3[nH]c(CN4CCOCC4)cc3c21 [pemigatinib]: the cell viability was 0.892.

With `Cn1cc(-c2ccc(S(=O)(=O)n3ccc(/C=C/C(=O)Nc4ccccc4N)c3)cc2)cn1` + CCN1C(=O)N(c2c(F)c(OC)cc(OC)c2F)Cc2cnc3[nH]c(CN4CCOCC4)cc3c21 [pemigatinib], the cell viability came to 0.568.

For `Cc1ccccc1N=Nc1ccc(NC(=O)c2ccnn2C)c(C)c1` + CCN1C(=O)N(c2c(F)c(OC)cc(OC)c2F)Cc2cnc3[nH]c(CN4CCOCC4)cc3c21 [pemigatinib], the cell viability amounted to 0.947.

For `CCN(CCCOc1ccc2c(Nc3cc(CC(=O)Nc4cccc(F)c4)[nH]n3)ncnc2c1)CCOP(=O)(O)O` [Barasertib (AZD1152-HQPA)] + CCN1C(=O)N(c2c(F)c(OC)cc(OC)c2F)Cc2cnc3[nH]c(CN4CCOCC4)cc3c21 [pemigatinib], the cell viability came out at 0.745.

`Cc1c[nH]c(/C=C2\C(=O)Nc3ccccc32)c1CCC(=O)O` + CCN1C(=O)N(c2c(F)c(OC)cc(OC)c2F)Cc2cnc3[nH]c(CN4CCOCC4)cc3c21 [pemigatinib]: the cell viability turned out to be 0.946.

Turning to `CC[N+](CC)(CC)CCOc1cccc(OCC[N+](CC)(CC)CC)c1OCC[N+](CC)(CC)CC` [Gallamine Triethiodide] + CCN1C(=O)N(c2c(F)c(OC)cc(OC)c2F)Cc2cnc3[nH]c(CN4CCOCC4)cc3c21 [pemigatinib], the cell viability turned out to be 0.975.

For `CN(C)CCCCC(=O)Nc1ccc(NC(=S)NC(=O)c2ccc(C(C)(C)C)cc2)cc1` [Tenovin-6] + CCN1C(=O)N(c2c(F)c(OC)cc(OC)c2F)Cc2cnc3[nH]c(CN4CCOCC4)cc3c21 [pemigatinib], the cell viability was 0.977.

As for `C=C(c1ccc(C(=O)O)cc1)c1cc2c(cc1C)C(C)(C)CCC2(C)C` [Bexarotene] + CCN1C(=O)N(c2c(F)c(OC)cc(OC)c2F)Cc2cnc3[nH]c(CN4CCOCC4)cc3c21 [pemigatinib], the cell viability was 1.07.

With `COc1cc(/C=C/C(=O)CC(=O)/C=C/c2ccc(O)c(OC)c2)ccc1O` [Curcumin] + CCN1C(=O)N(c2c(F)c(OC)cc(OC)c2F)Cc2cnc3[nH]c(CN4CCOCC4)cc3c21 [pemigatinib], the cell viability stood at 0.952.

As to `Cc1cc2c(F)c(Oc3ncnn4cc(OC[C@@H](C)O)c(C)c34)ccc2[nH]1` + CCN1C(=O)N(c2c(F)c(OC)cc(OC)c2F)Cc2cnc3[nH]c(CN4CCOCC4)cc3c21 [pemigatinib], the cell viability worked out at 1.05.

Consider `O=C(O)CSCC(=O)NC1CCSC1=O` (stereo not drawn) [Erdosteine] + CCN1C(=O)N(c2c(F)c(OC)cc(OC)c2F)Cc2cnc3[nH]c(CN4CCOCC4)cc3c21 [pemigatinib], for which the cell viability stood at 0.954.

Take `CC(C)CN(C[C@@H](O)[C@H](Cc1ccccc1)NC(=O)O[C@H]1CO[C@H]2OCC[C@H]21)S(=O)(=O)c1ccc(N)cc1` [Darunavir Ethanolate] + CCN1C(=O)N(c2c(F)c(OC)cc(OC)c2F)Cc2cnc3[nH]c(CN4CCOCC4)cc3c21 [pemigatinib]: the cell viability came out at 1.01.

Regarding `Nc1nc(Nc2ccc3c(c2)CCC(N2CCCC2)CC3)nn1-c1cc2c(nn1)-c1ccccc1CCC2` (stereo not drawn) + CCN1C(=O)N(c2c(F)c(OC)cc(OC)c2F)Cc2cnc3[nH]c(CN4CCOCC4)cc3c21 [pemigatinib], the cell viability was 0.77.

On to `CCCC(=O)OCOC(=O)C1=C(C)NC(C)=C(C(=O)OC)C1c1cccc(Cl)c1Cl` (stereo not drawn) [Clevidipine Butyrate] + CCN1C(=O)N(c2c(F)c(OC)cc(OC)c2F)Cc2cnc3[nH]c(CN4CCOCC4)cc3c21 [pemigatinib], for which the cell viability is 1.02.

`NC(CO)C(=O)NNCc1ccc(O)c(O)c1O` (stereo not drawn) [Benserazide HCl] + CCN1C(=O)N(c2c(F)c(OC)cc(OC)c2F)Cc2cnc3[nH]c(CN4CCOCC4)cc3c21 [pemigatinib]: the cell viability is 1.03.

For `C[C@H]1COc2c(N3CCN(C)CC3)c(F)cc3c(=O)c(C(=O)O)cn1c23` [Levofloxacin] + CCN1C(=O)N(c2c(F)c(OC)cc(OC)c2F)Cc2cnc3[nH]c(CN4CCOCC4)cc3c21 [pemigatinib], the cell viability was found to be 0.979.

For `Fc1ccc([C@@H]2CCNC[C@H]2COc2ccc3c(c2)OCO3)cc1` [Paroxetine HCl] + CCN1C(=O)N(c2c(F)c(OC)cc(OC)c2F)Cc2cnc3[nH]c(CN4CCOCC4)cc3c21 [pemigatinib], the cell viability was found to be 0.857.

As to `Nc1nc(O)c2ncn(CCC(CO)CO)c2n1` [Penciclovir] + CCN1C(=O)N(c2c(F)c(OC)cc(OC)c2F)Cc2cnc3[nH]c(CN4CCOCC4)cc3c21 [pemigatinib], the cell viability amounted to 0.97.

For `CN(C/C=C/C#CC(C)(C)C)Cc1cccc2ccccc12` [Terbinafine] + CCN1C(=O)N(c2c(F)c(OC)cc(OC)c2F)Cc2cnc3[nH]c(CN4CCOCC4)cc3c21 [pemigatinib], the cell viability stood at 1.06.

As to `CN(C/C=C/C#CC(C)(C)C)Cc1cccc2ccccc12` [Terbinafine HCl] + CCN1C(=O)N(c2c(F)c(OC)cc(OC)c2F)Cc2cnc3[nH]c(CN4CCOCC4)cc3c21 [pemigatinib], the cell viability is 0.95.

As for `O=c1[nH]cnc2c1ncn2[C@H]1CC[C@@H](CO)O1` [Didanosine] + CCN1C(=O)N(c2c(F)c(OC)cc(OC)c2F)Cc2cnc3[nH]c(CN4CCOCC4)cc3c21 [pemigatinib], the cell viability stood at 1.1.

On to `Clc1ccc(Nc2nnc(Cc3ccncc3)c3ccccc23)cc1` [Vatalanib (PTK787) 2HCl] + CCN1C(=O)N(c2c(F)c(OC)cc(OC)c2F)Cc2cnc3[nH]c(CN4CCOCC4)cc3c21 [pemigatinib], for which the cell viability was found to be 0.986.

For the molecule `Cn1cc(-c2ccc3nnc(Sc4ccc5ncccc5c4)n3n2)cn1` + CCN1C(=O)N(c2c(F)c(OC)cc(OC)c2F)Cc2cnc3[nH]c(CN4CCOCC4)cc3c21 [pemigatinib], the cell viability stood at 1.02.

`Cc1cc(O)c2c(c1)C(=O)c1cc(O)cc(O)c1C2=O` [Emodin] + CCN1C(=O)N(c2c(F)c(OC)cc(OC)c2F)Cc2cnc3[nH]c(CN4CCOCC4)cc3c21 [pemigatinib]: the cell viability came to 1.

For `O=C1NC(=O)/C(=C/c2cccc(C(F)(F)F)c2)S1` + CCN1C(=O)N(c2c(F)c(OC)cc(OC)c2F)Cc2cnc3[nH]c(CN4CCOCC4)cc3c21 [pemigatinib], the cell viability was 1.03.

On to `CN1CCN(C2CCN(C(=O)Nc3cc(Oc4ccc(NC(=O)C5(C(=O)Nc6ccc(F)cc6)CC5)c(F)c4)ccn3)CC2)CC1` [Golvatinib (E7050)] + CCN1C(=O)N(c2c(F)c(OC)cc(OC)c2F)Cc2cnc3[nH]c(CN4CCOCC4)cc3c21 [pemigatinib], for which the cell viability stood at 0.888.

As for `C[N+](C)(C)CCO.[Cl-]` [Choline Chloride] + CCN1C(=O)N(c2c(F)c(OC)cc(OC)c2F)Cc2cnc3[nH]c(CN4CCOCC4)cc3c21 [pemigatinib], the cell viability was found to be 1.03.
